PubChem BioAssay (Tox21)
“And” between values parts separate entries of the source, which are not always exact repeats. Identical values can stand only once. Inconclusive means that the source gave no clear call. Such entries were picked first, then a sample of the others. For some assays here: Where the call is inconclusive, the potency comes from a doubtful curve fit. Some structures have more than one record in an assay (separate samples or runs), and their calls can disagree. The source made the active and inactive calls. Unless noted, calls follow the shape of the dose curve; as a rule, active = well fitted curve in the direction sought with a large enough effect in the repeat runs; inconclusive = weak or mixed curves; inactive = no such curve, though single readings can be large; an effect the other way counts as inactive or inconclusive.

Experiments:
[1] = target: Nuclear receptor ROR-gamma (Homo sapiens) (UniProt P51449); test: qHTS assay to identify small molecule antagonists of the retinoid-related orphan receptor gamma (ROR-gamma) signaling pathway (AID 1159521; also: nearly all actives have a fitted effect of over 50% in size; also: potency is read from the fitted curve at half-maximal effect;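 as to activity change, negative = inhibition: CHO cells with doxycycline inducible ROR-gamma driving an RORE luciferase reporter; top concentration of the series differs between compounds; % is scaled to controls: 0 for no effect and ±100 for the full control effect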)
Outline: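 Inducible-expression reporter assay: doxycycline (1 uM final) switched on RORγ in CHO cells bearing a ROR response element-luciferase construct, with test compounds present from 2 h beforehand. Decreased luminescence after 16 h defined antagonist activity.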

[2] = Caspase-3/7 induction in HepG2 cells by small molecules, qHTS cell viability counter screen (AID 1346981); also: nearly all actives have a fitted effect of over 30% in size; also: potency is read from the fitted curve at half-maximal effect; as to activity change, negative = cytotoxicity: % is scaled to controls: 0 for no effect and ±100 for the full control effect
Outline: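 Wild-type HepG2 cells (2,000/well) were allowed to settle for 5 hr at 37 C, 5% CO2, then dosed with compounds in DMSO by pin transfer. After 16 hr at 37 C, CellTiter-Fluor was added and fluorescence read 1 hr later.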

[3] = A CellTox Green Cytotoxicity Assay to monitor cytotoxicity in HepG2 cells - 40 hour (AID 1224879); also: potency is read from the fitted curve at half-maximal effect; nearly all actives have a fitted effect of over 40% in size
Outline: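 HepG2 cells were seeded together with the CellTox Green dye at 600 cells/well, left 5 h at 37 C/5% CO2, then given compounds in DMSO. Fluorescence from dye bound to dead-cell DNA was read repeatedly over 40 h of treatment at 37 C.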

[4] = qHTS RealTime-Glo MT Cell Viability Assay in HEK293 cells - 8 hour (AID 1224887); also: nearly all actives have a fitted effect of over 50% in size; also: potency is read from the fitted curve at half-maximal effect; as to activity change, negative = cytotoxicity: top concentration of the series differs between compounds; % is scaled to controls: 0 for no effect and ±100 for the full control effect
Outline: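 HEK293 cells mixed with RealTime-Glo reagents (NanoLuc plus cell-permeant prosubstrate) at 600 cells/well, preincubated 5 h at 37 C/5% CO2, then given 23 nL compound in DMSO. Nonlytic luminescence from viable cells was read at 0, 8, 16, 24, 32 and 40 h.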

[5] = target: Thyrotropin receptor (Homo sapiens) (UniProt P16473); test: qHTS assay to identify small molecule antagonists of the thyroid stimulating hormone receptor (TSHR) signaling pathway (AID 1259385; calls by dose curve; also: % is scaled to controls: 0 for no effect and ±100 for the full control effect; nearly all actives have a fitted effect of over 20% in size); conditions: TSHR-HEK293 cAMP HTRF, TSH-stimulated antagonist mode; activity change, negative = inhibition: at 92.4 µM (top of the series)
Outline: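 TSHR-HEK293 cells (800/well) plated 18 h, then compounds with Ro20-1724 and TSH at 1.5 ng/mL final, 30 min at room temperature. cAMP quantified by HTRF (cAMP-d2/anti-cAMP-cryptate, 1 h); 15 concentrations in triplicate.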

[6] = qHTS assay to identify small molecule agonists of the sonic hedgehog signaling (Shh) pathway - cell viability counter screen (AID 1259366); also: nearly all actives have a fitted effect of over 50% in size; also: potency is read from the fitted curve at half-maximal effect; as to viability change, negative = cytotoxic: % is scaled to controls: 0 for no effect and ±100 for the full control effect
Outline: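 Compounds in DMSO were pin-transferred onto 3T3 Gli1-Luc cells that had settled 4hr; plates then stood 24hr at 37C and 5% CO2. One hour before the end, CellTiter-Fluor was added and fluorescence recorded.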

[7] = qHTS assay to identify small molecule antagonists of the estrogen receptor alpha (ER-alpha) signaling pathway using the BG1 cell line (AID 743080; calls by dose curve;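 also: BG1 cells stimulated with 17beta-estradiol alongside compound; nearly all actives have a fitted effect of over 25% in size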; also: potency is read from the fitted curve at half-maximal effect); conditions: BG1Luc4E2 ERE-luciferase antagonist mode, luminescence; activity change, negative = inhibition: at 70.3 µM (top of the series) unless noted
Outline: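 Luciferase inhibition measured with ONE-Glo after 30 min at RT in BG1Luc4E2 cells given test compounds and 17beta-estradiol for 21.5 h at 37 C; CellTiter-Fluor viability read in the same wells beforehand.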

[8] = qHTS assay to identify aromatase inhibitors - cell viability counter screen (AID 743084); conditions: MCF-7 aro ERE viability, CellTiter-Fluor, 24 h; activity change, negative = cytotoxicity: at 70.3 µM (top of the series);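 also: cells stimulated with testosterone during compound exposure; potency is read from the fitted curve at half-maximal effect; nearly all actives have a fitted effect of over 55% in size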
[9] = target: Peroxisome proliferator-activated receptor gamma (Homo sapiens) (UniProt P37231); test: qHTS assay to identify small molecule agonists of the peroxisome proliferator-activated receptor gamma (PPARg) signaling pathway (AID 743094; active = well fitted activation curve with a large enough effect in the signal ratio in the repeat runs, not every such curve was filed as active; inconclusive = weak or mixed curves, or effect the other way; inactive = no such curve, though single readings can be large or run the other way; the % refers to the signal ratio; also: potency is read from the fitted curve at half-maximal effect); conditions: HEK293H PPARg-UAS-bla, beta-lactamase FRET ratio, 17 h; activation: at 57 µM (top of the series) unless noted
Outline: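 GeneBLAzer PPARg UAS-bla HEK293H cells carrying a stably integrated beta-lactamase reporter were pre-incubated 5 h at 37C, then exposed to compounds in DMSO for 17 h at 37C; LiveBLAzer B/G FRET substrate was added for 1 h at room temperature and fluorescence read.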

[10] = qHTS assay to identify small molecule agonists of the peroxisome proliferator-activated receptor delta (PPARd) signaling pathway - cell viability counter screen (AID 743211); conditions: PPARd-bla HEK293H viability, CellTiter-Glo luminescence, 17 h; activity change, negative = cytotoxicity: at 62.6 µM (top of the series); also: nearly all actives have a fitted effect of over 55% in size; also: potency is read from the fitted curve at half-maximal effect
Outline: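 Tox21 library compounds, delivered in DMSO, were incubated 17 h with PPARd-bla HEK293H cells; cytotoxicity was taken from CellTiter-Glo luminescence read 30 min after reagent addition.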

[11] = qHTS assay to identify small molecule agonists of the farnesoid-X-receptor (FXR) signaling pathway - cell viability counter screen (AID 743218); conditions: FXR-bla HEK293T viability, CellTiter-Glo luminescence, 16 h; viability change, negative = cytotoxic: at 62.6 µM (top of the series); also: potency is read from the fitted curve at half-maximal effect; nearly all actives have a fitted effect of over 45% in size
Outline: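 FXR-UAS-bla HEK 293T cells, plated 5 h at 37 C, were exposed to compounds for 16 h at 37 C. CellTiter-Glo was then added to the same wells as the bla readout; luminescence read after 30 min at room temperature.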

[12] = target: Luciferin 4-monooxygenase (Photinus pyralis) (UniProt P08659); test: qHTS assay to identify small molecule inhibitors of firefly luciferase (AID 1224835); also: potency is read from the fitted curve at half-maximal effect; nearly all actives have a fitted effect of over 25% in size
Outline: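 Biochemical qHTS: compounds run as interplate titrations against purified firefly enzyme, with D-luciferin and ATP each at its KM concentration. Light output recorded by CCD imaging.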

[13] = A CellTox Green Cytotoxicity Assay to monitor cytotoxicity in HEK293 cells - 40 hour (AID 1224871); also: potency is read from the fitted curve at half-maximal effect; nearly all actives have a fitted effect of over 45% in size
Outline: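 HEK293 cells premixed with CellTox Green dye were seeded at 600 cells/well and left 5 h at 37 C/5% CO2 before pin transfer of 23 nL compound in DMSO. Fluorescence from dye bound to dead-cell DNA was read during 40 h treatment.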

[14] = Human pregnane X receptor (PXR) small molecule agonists, qHTS cell viability counter screen (AID 1346977); also: nearly all actives have a fitted effect of over 50% in size; also: potency is read from the fitted curve at half-maximal effect
Outline: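 Viability counter screen: CellTiter-Fluor signal in PXR-Luc HepG2 cells, 24hr compound exposure, 37C, 5% CO2.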

[15] = qHTS assay to identify small molecule antagonists of the peroxisome proliferator-activated receptor gamma (PPARg) signaling pathway - cell viability counter screen (AID 743194); conditions: PPARg-bla HEK293H viability, CellTiter-Glo luminescence, 17 h; Potency: co-treated with 50 nM rosiglitazone unless noted; activity change, negative = cytotoxicity: at 62.6 µM (top of the series), co-treated with 50 nM rosiglitazone unless noted; also: nearly all actives have a fitted effect of over 55% in size; also: potency is read from the fitted curve at half-maximal effect
Outline: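 Cytotoxicity counter screen in PPARg-bla HEK293H cells, same wells as reporter assay. Compounds plus 50 nM rosiglitazone (final) for 17 h at 37 C, then viability read by CellTiter-Glo luminescence.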

[16] = qHTS assay to identify small molecule antagonists of the estrogen related receptor signaling pathway with the pleiotropic PPARgamma coactivator (PGC) from Tox21 10K library (AID 1224841; call rule not given here; also: potency is read from the fitted curve at half-maximal effect)
Outline: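 PGC/ERR reporter cells were seeded at 2,000 cells/well and held 6 hours at 37 C/5% CO2 before pin-tool addition of compounds in DMSO. After 18 hours at 37 C, One-Glo was added and luminescence read after 30 minutes at room temperature.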

[17] = qHTS assay to identify small molecule antagonists of the sonic hedgehog signaling (Shh) pathway - cell viability counter screen (AID 1259367); also: % is scaled to controls: 0 for no effect and ±100 for the full control effect; nearly all actives have a fitted effect of over 55% in size
Outline: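 NIH/3T3-derived Gli1-Luc reporter cells, 2,000/well, plated 4 hr before compound addition, then stimulated with conditioned medium for 24 hr at 37C. Viability measured in the same wells by CellTiter-Fluor fluorescence, reagent added at 23 hr for 1 hr.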

[18] = qHTS assay for identifying genotoxic compounds that show differential cytotoxicity against isogenic chicken DT40 cell lines with known DNA damage response pathways - Rad54/Ku70 mutant cell line (AID 743015); conditions: DT40 Rad54/Ku70 mutant viability, CellTiter-Glo, 40 h; activity change, negative = cytotoxicity: at 66.8 µM (top of the series); also: nearly all actives have a fitted effect of over 60% in size; also: potency is read from the fitted curve at half-maximal effect
[19] = target: Nuclear receptor subfamily 1 group I member 3 (Homo sapiens) (UniProt Q14994); test: qHTS assay to identify small molecule agonists of the constitutive androstane receptor (CAR) signaling pathway (AID 1224839); also: potency is read from the fitted curve at half-maximal effect; nearly all actives have a fitted effect of over 15% in size
Outline: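 Readout: firefly luciferase luminescence via ONE-Glo. System: HepG2 double-stable for hCAR and CYP2B6-2.2kb. Conditions: 15-point compound titration, PK11195 at 0.75 uM final, 24 h incubation.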

[20] = qHTS assay to identify small molecule antagonists of the estrogen receptor beta (ER-beta) signaling pathway - cell viability counter screen (AID 1259382)
Outline: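 ER-beta-UAS-bla HEK293T cells (2,000/well, 2% charcoal-stripped FBS) were pre-incubated 6 hr at 37C, then given compound plus 1nM final 17-beta-estradiol for 16 hr. Viability was read in the same wells by CellTiter-Glo luminescence after 30 min at room temperature.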
Tags tell the direction and shape of the fitted curve or compound fluorescence and quenching.

UniProt P16473, sequence (P16473 whole entry, looked up): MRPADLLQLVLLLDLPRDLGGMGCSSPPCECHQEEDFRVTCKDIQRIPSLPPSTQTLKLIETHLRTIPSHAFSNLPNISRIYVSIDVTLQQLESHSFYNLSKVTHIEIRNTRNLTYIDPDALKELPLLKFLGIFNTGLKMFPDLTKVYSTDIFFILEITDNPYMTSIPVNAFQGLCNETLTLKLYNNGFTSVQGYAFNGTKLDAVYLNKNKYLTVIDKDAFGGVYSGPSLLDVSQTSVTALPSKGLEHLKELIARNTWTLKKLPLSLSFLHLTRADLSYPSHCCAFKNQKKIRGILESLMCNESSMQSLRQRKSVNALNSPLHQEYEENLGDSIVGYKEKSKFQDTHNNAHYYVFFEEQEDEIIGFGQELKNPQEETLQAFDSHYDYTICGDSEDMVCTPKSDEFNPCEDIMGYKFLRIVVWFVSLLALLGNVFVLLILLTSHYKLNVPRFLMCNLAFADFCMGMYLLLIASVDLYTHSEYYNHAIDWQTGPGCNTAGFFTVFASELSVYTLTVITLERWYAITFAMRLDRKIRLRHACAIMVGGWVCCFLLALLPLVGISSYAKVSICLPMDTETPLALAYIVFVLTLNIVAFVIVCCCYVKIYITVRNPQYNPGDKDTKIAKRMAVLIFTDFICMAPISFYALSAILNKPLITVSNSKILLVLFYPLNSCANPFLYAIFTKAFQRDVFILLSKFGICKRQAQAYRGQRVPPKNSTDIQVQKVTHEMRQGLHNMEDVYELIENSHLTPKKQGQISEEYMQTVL
UniProt P37231, sequence (P37231 whole entry, looked up): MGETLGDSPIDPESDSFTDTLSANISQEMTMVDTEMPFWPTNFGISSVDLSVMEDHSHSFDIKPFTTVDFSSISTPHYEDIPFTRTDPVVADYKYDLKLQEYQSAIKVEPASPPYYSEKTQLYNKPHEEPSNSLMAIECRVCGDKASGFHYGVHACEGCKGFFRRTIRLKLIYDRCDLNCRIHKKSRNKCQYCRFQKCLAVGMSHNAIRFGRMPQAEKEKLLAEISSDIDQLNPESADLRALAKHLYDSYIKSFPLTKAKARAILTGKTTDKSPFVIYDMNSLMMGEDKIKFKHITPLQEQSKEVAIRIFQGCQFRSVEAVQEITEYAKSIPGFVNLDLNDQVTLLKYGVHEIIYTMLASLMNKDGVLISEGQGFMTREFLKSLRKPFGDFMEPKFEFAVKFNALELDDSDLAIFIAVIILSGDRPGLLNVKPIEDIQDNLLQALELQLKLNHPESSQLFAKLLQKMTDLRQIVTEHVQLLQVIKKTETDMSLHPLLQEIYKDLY
UniProt P08659, sequence (P08659 whole entry, looked up): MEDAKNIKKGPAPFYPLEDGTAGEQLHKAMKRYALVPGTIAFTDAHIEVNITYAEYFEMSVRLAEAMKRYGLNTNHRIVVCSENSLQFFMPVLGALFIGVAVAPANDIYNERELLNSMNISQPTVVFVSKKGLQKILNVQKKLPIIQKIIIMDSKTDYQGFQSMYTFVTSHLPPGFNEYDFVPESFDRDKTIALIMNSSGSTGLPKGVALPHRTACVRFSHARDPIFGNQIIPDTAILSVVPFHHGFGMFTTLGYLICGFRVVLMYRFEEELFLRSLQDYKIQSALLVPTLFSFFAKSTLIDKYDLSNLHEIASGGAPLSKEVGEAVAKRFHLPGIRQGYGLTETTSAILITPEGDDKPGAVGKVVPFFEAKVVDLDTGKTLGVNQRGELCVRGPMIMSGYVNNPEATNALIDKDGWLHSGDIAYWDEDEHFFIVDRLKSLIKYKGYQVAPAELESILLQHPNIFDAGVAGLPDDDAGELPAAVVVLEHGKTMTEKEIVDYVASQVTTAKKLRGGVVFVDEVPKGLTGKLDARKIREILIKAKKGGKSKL
UniProt Q14994, sequence (Q14994 whole entry, looked up): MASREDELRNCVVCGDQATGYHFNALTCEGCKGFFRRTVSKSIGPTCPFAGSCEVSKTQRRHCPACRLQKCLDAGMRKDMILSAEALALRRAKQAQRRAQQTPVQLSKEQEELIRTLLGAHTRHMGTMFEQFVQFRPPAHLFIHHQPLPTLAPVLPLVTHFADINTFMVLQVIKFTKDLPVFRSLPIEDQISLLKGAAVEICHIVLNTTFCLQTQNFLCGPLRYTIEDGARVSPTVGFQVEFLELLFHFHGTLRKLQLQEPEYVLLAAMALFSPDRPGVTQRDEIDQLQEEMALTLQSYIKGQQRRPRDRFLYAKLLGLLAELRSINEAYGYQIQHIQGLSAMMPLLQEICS

Cc1nnc(-c2ccccc2)c(=O)n1N
Potency [1]: inactive
Potency [2]: inactive

CC(C)(C)c1ccc(CCOc2ncnc3ccccc23)cc1
Potency [1]: inactive
Potency [3]: inconclusive: 54.9 µM [activator, single point]
Potency [4]: inactive
Potency [5]: inactive
Potency [2]: inactive

COS(=O)(=O)c1ccc(C)cc1
Potency [1]: inactive
Potency [6]: inactive

c1ccc(Nc2ccc(Nc3ccccc3)cc2)cc1
Potency [7]: inconclusive: 7.66 µM [rising, partial curve]
Potency [8]: inconclusive: 60.9 µM [cytotoxic, partial curve]
activation [9]: inconclusive: -12.8%
Potency [10]: inconclusive: 48.8 µM [cytotoxic, partial curve]
Potency [11]: inconclusive: 61.4 µM [cytotoxic, single point]
Potency [12]: active: 28.1 µM
Potency [13]: inconclusive: 21.8 µM [activator, single point]
Potency [4]: active: 15.4 µM
Potency [6]: inconclusive: 68.3 µM [cytotoxic, partial curve, poor fit]
Potency [14]: inconclusive: 68.3 µM [cytotoxic, partial curve, poor fit]

CC1=C(C(=O)Nc2ccccc2)S(=O)(=O)CCO1
Potency [7]: active: 76.9 µM
activation [9]: inconclusive: -12.2%
Potency [15]: inconclusive: 38.9 µM [cytotoxic, partial curve, poor fit]
Potency [11]: inconclusive: 54.9 µM [cytotoxic]
Potency [13]: inconclusive: 61.6 µM [activator, single point]
Potency [14]: inconclusive: 68.5 µM [cytotoxic, single point]
Potency [2]: inconclusive: 61.1 µM [cytotoxic]

O=P(Cl)(Cl)Cl
Potency [9]: inactive
Potency [1]: inconclusive: 9.2 nM [inhibitor, full curve, poor fit]

[O]=[Cd]
Potency [16]: inconclusive: 24.2 µM [falling, partial curve, poor fit]
Potency [17]: inactive
Potency [5]: inactive

COP(=S)(OC)Oc1ccc(SC)c(C)c1
Potency [18]: inconclusive: 33.5 µM [cytotoxic, single point] and inactive and active: 61.1 µM
Potency [7]: inconclusive: 33.5 µM [rising, single point]
Potency [9]: inconclusive: 54.3 µM [falling, partial curve, poor fit]
Potency [12]: inconclusive: 62.6 µM [inhibitor, partial curve] and inconclusive: 44.8 µM [inhibitor, partial curve] and inconclusive: 38.9 µM [inhibitor, single point]
Potency [2]: inactive

CCc1cc(C)cc(CC)c1-c1c(OC(=O)C(C)(C)C)n2n(c1=O)CCOCC2
Potency [4]: inactive
Potency [14]: inconclusive: 43.3 µM [cytotoxic, partial curve, poor fit]

COc1cccc2c1cc([N+](=O)[O-])c1c(C(=O)O)cc3c(c12)OCO3
Potency [18]: active: 193 nM
Potency [7]: inconclusive: 17.2 µM [falling, full curve]
Potency [8]: active: 24.3 µM
Potency [9]: inconclusive: 17.4 µM
Potency [15]: inconclusive: 38.9 µM [cytotoxic, partial curve, poor fit]
Potency [3]: inconclusive: 30.9 µM [activator, single point]
Potency [6]: active: 12.2 µM
Potency [2]: active: 27.3 µM

C1CC2OC2CC1C1CO1 (stereo not given)
Potency [15]: inactive
Potency [10]: inactive
Potency [4]: inconclusive: 21.9 µM [rising, single point]

Nc1ccc(Oc2ccc(N)cc2)cc1
Potency [18]: inconclusive: 78.1 µM [cytotoxic, partial curve, poor fit] and inconclusive: 48.6 µM [cytotoxic, partial curve]
Potency [11]: inconclusive: 11 µM [cytotoxic, full curve, poor fit]
Potency [19]: inconclusive: 62 µM [activator, partial curve]
Potency [16]: inactive
Potency [20]: inconclusive: 34.4 µM [cytotoxic, partial curve, poor fit]

CCOC(=O)NC(O)C(Cl)(Cl)Cl (stereo not given)
Potency [7]: inactive
Potency [14]: inactive

COC(=O)COc1ccc(Cl)cc1Cl
Potency [10]: inactive
Potency [12]: inconclusive: 44.8 µM [inhibitor, partial curve]
Potency [2]: inactive

ClC(Cl)=C(c1ccc(Cl)cc1)c1ccccc1Cl
Potency [19]: active: 21.7 µM
Potency [13]: inconclusive: 61.6 µM [activator, single point]
Potency [3]: inconclusive: 61.6 µM [activator, single point]
Potency [4]: inconclusive: 61.6 µM [cytotoxic, single point]
activity change, negative = inhibition [5]: inconclusive: -5.7%
Potency [14]: inconclusive: 68.6 µM [cytotoxic, partial curve, poor fit]
